# Measured values published in the supplement of paper PMC8728848.
# This is one part of the list.
# How the values were obtained:
# Assay in all cases: glycan array binding signal (z-score within array); higher = stronger binding
# Conditions in all cases: glycan notation: IUPAC condensed, linker removed
# [1] = target: GlcNAc(b1-4)Gal(b1-4)GlcNAc
# Outline: (§1)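 Arrays were curated from the Consortium for Functional Glycomics database, 3228 in total, and kept only where the protein sequence was available. Binding is expressed as a within-array Z-score. This score was averaged across arrays of the same protein sequence at different concentrations or buffers and across linkers, and negative values can be read as non-binding.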
# GlcNAc(b1-4)GlcNAc = target: GlcNAc(b1-4)GlcNAc
# Outline: as §1
# [2] = target: GlcNAc(b1-4)GlcNAc(b1-4)GlcNAc
# Outline: as §1
# [3] = target: GlcNAc(b1-4)GlcNAc(b1-4)GlcNAc(b1-4)GlcNAc(b1-4)GlcNAc
# Outline: as §1
# [4] = target: GlcNAc(b1-4)GlcNAc(b1-4)GlcNAc(b1-4)GlcNAc(b1-4)GlcNAc(b1-4)GlcNAc
# Outline: as §1
# [5] = target: GlcNAc(b1-4)[GlcNAc(b1-6)]GalNAc
# Outline: as §1
# [6] = target: GlcNAc(b1-6)Gal(b1-4)GlcNAc
# Outline: as §1
# GlcNAc(b1-6)GalNAc = target: GlcNAc(b1-6)GalNAc
# Outline: as §1
# GlcNAc3Prop(b1-4)GlcNAc = target: GlcNAc3Prop(b1-4)GlcNAc
# Outline: as §1
# [7] = target: GlcNAc6S(b1-3)Gal(b1-4)GlcNAc
# Outline: as §1
# Kdn(a2-3)Gal(b1-3)GalNAc = target: Kdn(a2-3)Gal(b1-3)GalNAc
# Outline: as §1
# Kdn(a2-3)Gal(b1-3)GlcNAc = target: Kdn(a2-3)Gal(b1-3)GlcNAc
# Outline: as §1
# Kdn(a2-3)Gal(b1-4)Glc = target: Kdn(a2-3)Gal(b1-4)Glc
# Outline: as §1
# Kdn(a2-3)Gal(b1-4)GlcNAc = target: Kdn(a2-3)Gal(b1-4)GlcNAc
# Outline: as §1
# [8] = target: Kdn(a2-3)Gal(b1-4)[Fuc(a1-3)]GlcNAc
# Outline: as §1
# Kdn(a2-6)Gal(b1-4)GlcNAc = target: Kdn(a2-6)Gal(b1-4)GlcNAc
# Outline: as §1
# [9] = target: Man(a1-2)Man(a1-2)Man(a1-3)Man
# Outline: as §1
# [10] = target: Man(a1-2)Man(a1-2)Man(a1-6)[Man(a1-3)]Man
# Outline: as §1
# Man(a1-2)Man(a1-3)Man = target: Man(a1-2)Man(a1-3)Man
# Outline: as §1
# [11] = target: Man(a1-2)Man(a1-3)[Man(a1-2)Man(a1-6)]Man
# Outline: as §1
# [12] = target: Man(a1-2)Man(a1-3)[Man(a1-2)Man(a1-6)]Man(a1-6)[Man(a1-2)Man(a1-2)Man(a1-3)]Man
# Outline: as §1
# [13] = target: Man(a1-2)Man(a1-3)[Man(a1-2)Man(a1-6)]Man(a1-6)[Man(a1-2)Man(a1-2)Man(a1-3)]Man(b1-4)GlcNAc(b1-4)GlcNAc
# Outline: as §1
# [14] = target: Man(a1-2)Man(a1-3)[Man(a1-6)]Man(a1-6)[Man(a1-2)Man(a1-3)]Man(b1-4)GlcNAc(b1-4)GlcNAc
# Outline: as §1
# [15] = target: Man(a1-2)Man(a1-6)[Man(a1-3)]Man(a1-6)[Man(a1-2)Man(a1-2)Man(a1-3)]Man
# Outline: as §1
# [16] = target: Man(a1-2)Man(a1-6)[Man(a1-3)]Man(a1-6)[Man(a1-2)Man(a1-2)Man(a1-3)]Man(b1-4)GlcNAc(b1-4)GlcNAc
# Outline: as §1
# Man(a1-3)[Man(a1-6)]Man = target: Man(a1-3)[Man(a1-6)]Man
# Outline: as §1
# [17] = target: Man(a1-3)[Man(a1-6)]Man(a1-6)[Man(a1-2)Man(a1-3)]Man(b1-4)GlcNAc(b1-4)GlcNAc
# Outline: as §1
# [18] = target: Man(a1-3)[Man(a1-6)]Man(a1-6)[Man(a1-3)]Man
# Outline: as §1
# [19] = target: Man(a1-3)[Man(a1-6)]Man(a1-6)[Man(a1-3)]Man(b1-4)GlcNAc(b1-4)GlcNAc
# Outline: as §1
# [20] = target: Man(a1-3)[Man(a1-6)]Man(b1-4)GlcNAc(b1-4)GlcNAc
# Outline: as §1
binder,measurement,setting,value
"Siglec-F (Mus musculus), Q920G3 (protein) MRWAWLLPLLWAGCLATDGYSLSVTGSVTVQEGLCVFVACQVQYPNSKGPVFGYWFREGANIFSGSPVATNDPQRSVLKEAQGRFYLMGKENSHNCSLDIRDAQKIDTGTYFFRLDGSVKYSFQKSMLSVLVIALTEVPNIQVTSTLVSGNSTKLLCSVPWACEQGTPPIFSWMSSALTSLGHRTTLSSELNLTPRPQDNGTNLTCQVNLPGTGVTVERTQQLSVIYAPQKMTIRVSWGDDTGTKVLQSGASLQIQEGESLSLVCMADSNPPAVLSWERPTQKPFQLSTPAELQLPRAELEDQGKYICQAQNSQGAQTASVSLSIRSLLQLLGPSCSFEGQGLHCSCSSRAWPAPSLRWRLGEGVLEGNSSNGSFTVKSSSAGQWANSSLILSMEFSSNHRLSCEAWSDNRVQRATILLVSGPKVSQAGKSETSRGTVLGAIWGAGLMALLAVCLCLIFFTVKVLRKKSALKVAATKGNHLAKNPASTINSASITSSNIALGYPIQGHLNEPGSQTQKEQPPLATVPDTQKDEPELHYASLSFQGPMPPKPQNTEAMKSVYTEIKIHKC",glycan array binding signal (z-score),[1],-0.115
same,glycan array binding signal (z-score),GlcNAc(b1-4)GlcNAc,-0.123
same,glycan array binding signal (z-score),[2],-0.125
same,glycan array binding signal (z-score),[3],-0.124
same,glycan array binding signal (z-score),[4],-0.126
same,glycan array binding signal (z-score),[5],-0.119
same,glycan array binding signal (z-score),[6],-0.116
same,glycan array binding signal (z-score),GlcNAc(b1-6)GalNAc,-0.118
same,glycan array binding signal (z-score),GlcNAc3Prop(b1-4)GlcNAc,-0.088
same,glycan array binding signal (z-score),[7],-0.118
same,glycan array binding signal (z-score),Kdn(a2-3)Gal(b1-3)GalNAc,-0.103
same,glycan array binding signal (z-score),Kdn(a2-3)Gal(b1-3)GlcNAc,-0.108
same,glycan array binding signal (z-score),Kdn(a2-3)Gal(b1-4)Glc,-0.129
same,glycan array binding signal (z-score),Kdn(a2-3)Gal(b1-4)GlcNAc,-0.116
same,glycan array binding signal (z-score),[8],0.015
same,glycan array binding signal (z-score),Kdn(a2-6)Gal(b1-4)GlcNAc,-0.119
same,glycan array binding signal (z-score),[9],-0.122
same,glycan array binding signal (z-score),[10],-0.121
same,glycan array binding signal (z-score),Man(a1-2)Man(a1-3)Man,-0.126
same,glycan array binding signal (z-score),[11],-0.124
same,glycan array binding signal (z-score),[12],-0.111
same,glycan array binding signal (z-score),[13],-0.123
same,glycan array binding signal (z-score),[14],-0.109
same,glycan array binding signal (z-score),[15],-0.13
same,glycan array binding signal (z-score),[16],-0.122
same,glycan array binding signal (z-score),Man(a1-3)[Man(a1-6)]Man,-0.113
same,glycan array binding signal (z-score),[17],-0.114
same,glycan array binding signal (z-score),[18],-0.115
same,glycan array binding signal (z-score),[19],-0.105
same,glycan array binding signal (z-score),[20],-0.123
